From the supplement of paper PMC11417369 come the findings set out here.

The list shows a part of the results.

This assay has as its system PfHDP1 homeodomain (GST-tagged). Kind of assay: gcPBM binding intensity (ln(normalized median fluorescence intensity)); higher = stronger DNA binding. In a few lines: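 After 1 h on an Agilent 4 × 180k array of primer-extended double-stranded 36-bp intergenic genomic probes and negative controls, bound GST-tagged P. falciparum DNA-binding domains were detected with Alexa488 anti-GST antibody and scanned at 488 nm. The domains had been expressed in E. coli, and binding took place in 1× PBS with 1% milk, 0.2 mg/ml BSA, 0.5% salmon testes DNA and 0.03% Triton X-100. Binding intensity is the highest Masliner-normalised natural-log median intensity across replicate spots of either probe orientation.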
Regarding “AAATATAAACTCAGCACACAAACATATATATGTCAT [CACACA_site4004]”, the “gcPBM binding intensity (ln)” value was determined as 6.67. For “TTCTAATATTTACATAATATATAGAAATATAAAGGT [XGTACX_negctrl_site504]”, the “gcPBM binding intensity (ln)” value was 6.63. The same measure for “GTAGACATTATAATGGTGCAAAAAAATTAACAAAAA [GTGCAC_site9891]”: 10.6; for “ATGGTATAAAAAAATACACACTTATATATATTCTTA [CACACA_site4427]”: 6.25. Take “TTTTTTTTTTTTTCTCGTACAAAATAATACCTTTTT [XGTACX_site3867]”: the “gcPBM binding intensity (ln)” value was determined as 6.56. As to “GCCATTGTACCATCCACACACATATATATCTGTATA [CACACA_site5490]”, the “gcPBM binding intensity (ln)” value is 7.4.

Consider “AAAAAAGAAGAGCACACACACATATATAAATATAAA [CACACA_site631]”, for which the “gcPBM binding intensity (ln)” value is 6.77. With “TGGTATTAAGGAGAGGGTACAAAAAAAAAAAAAAAA [XGTACX_site1668]”, the “gcPBM binding intensity (ln)” value was found to be 6.64.

Take “TAAAATTTTGTTTGTTGTACTTATTTTCGTGTCAAC [XGTACX_site8277]”: the “gcPBM binding intensity (ln)” value is 6.77. Turning to “AAAGATGAATTTTTTACACACACCATTTTATAATAT [CACACA_site3676]”, the “gcPBM binding intensity (ln)” value was 6.68. The same measure for “AAAAAAAAAAAAAAAAAAAAATATATATATATATAT [GTGCAC_negctrl_site426]”: 9.44; for “AAAAGTATAATAAATTGTACTAACAAATATTTATGT [XGTACX_site7721]”: 6.21; for “TACTTATCGTTAAATTGTACTAAAAAATATTTTTCT [XGTACX_site4665]”: 6.5.

“AATGTAAAACCTCCTACACACACCAATTAACTATTC [CACACA_site2112]”: the “gcPBM binding intensity (ln)” value stood at 6.77.

Consider “GTAATATATTTTTATGGTACACGAACTAGCCAAAAA [XGTACX_site6307]”, for which the “gcPBM binding intensity (ln)” value came to 6.37. Consider “CCGCATTTTACAGACACACACAATTTATATTACGGT [CACACA_site6974]”, for which the “gcPBM binding intensity (ln)” value was determined as 6.5. The same measure for “AGTAATAACTATATATGTACATATATATATTATTAG [XGTACX_site1113]”: 6.21. The same measure for “TAATATATTTATAAGTGTACACATTATATAAATCCC [XGTACX_site8875]”: 6.91; for “TTTTTTTTTTTAAATACATGCATGTCCTATTTAAAT [TGCATGCA_site494]”: 6.73; for TTTTTTTGATAAAAGGTGCTACAAGATGAATACATA: 6.48. As to “GTTGTATAAAATAATACATGCATGTCCTACATATAT [TGCATGCA_site162]”, the “gcPBM binding intensity (ln)” value was determined as 7.05. With “ATAAATAAAAAAAAAAAAAAAAAAAAAAAAAAAATA [CACACA_negctrl_site1064]” the figure was 5.96; with “AAGTATGCGTTATATACACACATACATTTATATATC [CACACA_site6207]”, 6.75; with “AGAGAGAAAGCTATAACATGCAACAATTTTTAGAAA [TGCATGCA_site95]”, 6.86. Turning to “TCAGAGTGAAGTTATACACACATGGTTTTTTTTTTT [CACACA_site2116]”, the “gcPBM binding intensity (ln)” value was found to be 6.36. For “AGGAGGATATTACACAGTACCCAGTAACTCTACGGA [XGTACX_site1998]”, the “gcPBM binding intensity (ln)” value came to 6.36. With “CTCTTATACATATTCCTGCACTTATTTTTAAAAACA [GTGCAC_site9620]” the figure was 8.08.

On to “ATCATATTTTTATGTGTGCACTTTTTTTTTTTTTTT [GTGCAC_site9555]”, for which the “gcPBM binding intensity (ln)” value amounted to 8.73. With “AAAAATGGTGTTAACACACACATATAAATAAATATA [CACACA_site6412]” the figure was 6.27; with “AACATAAGTAATATTTGTACATATATAATAATATAT [XGTACX_site5123]”, 6.43. The same measure for “AAGGATCACCCACAAACACACATATATATATATATA [CACACA_site559]”: 9.4. For the sequence “TAAATGTGAAATTTTATATTTTATATAATATACAAT [CACACA_negctrl_site76]”, the “gcPBM binding intensity (ln)” value was determined as 5.99. With “ATAATATAAATAATTATACACACTTAATATATATAT [CACACA_site2782]” the figure was 8.16; with “GTATGTATGTATGTATGTACGTATTTATTTATTTAA [XGTACX_site726]”, 7.45. As to “CAATTCTTAAGTTCTTGTACGAAAAACGACAATTTA [XGTACX_site3890]”, the “gcPBM binding intensity (ln)” value came to 5.97. For “ACACATATATATATATATATATATATATATATATAT [CACACA_negctrl_site1766]”, the “gcPBM binding intensity (ln)” value was 9.38.

As to “AAGAAAAATAATTAGGGTGAAAATATATAGAGTAAA [TGCATGCA_negctrl_site590]”, the “gcPBM binding intensity (ln)” value was determined as 7.06. With “TATTATATAAAATATTTTATTATATCATCTTCTCTA [XGTACX_negctrl_site319]” the figure was 6.34; with “GGTAATAATATGCATAGTACATAATATATATATATA [XGTACX_site6793]”, 8.74; with “AAAAAAATATATATATGTACATAACTTTGTTGTGAT [XGTACX_site5243]”, 6.56. The same measure for “TTTGAACATTTTGCAAGTACAAAAAAATAATATATC [XGTACX_site8079]”: 7.08; for “TGTTAAATTATTTATCAGATTATTATTTGTAAATAA [CACACA_negctrl_site1535]”: 6.02; for “TATATATATATATATACACACATATATATATTTTTC [CACACA_site3983]”: 9.35. With “AATACCTATGGAATTAATAATATGTGTACAGACACA [TGCATGCA_negctrl_site547]” the figure was 6.23. For the sequence “AACAATGGATTATTCACACATAAAAAAATTCACATT [CACACA_site5437]”, the “gcPBM binding intensity (ln)” value worked out at 6.15. With “ATCATTATATTATGGTGTACCCATATATAATTATCA [XGTACX_site551]” the figure was 6.43. Consider “AATTTAAAGAATTGTAGTACAATGAAATATATATAA [XGTACX_site7970]”, for which the “gcPBM binding intensity (ln)” value turned out to be 6.74. Turning to “CATTAAACCGTGGGAGCACACACACCCACCCACCCA [CACACA_site8000]”, the “gcPBM binding intensity (ln)” value was determined as 6.91. For “AACATGCAAACATGCACACAGAAAAAAAAAATATAT [CACACA_site1565]”, the “gcPBM binding intensity (ln)” value is 9.37. The same measure for “TTACACATACATATGTGGGAAAATATTGCTACATAT [CACACA_negctrl_site463]”: 6.76; for “GGAACTTAAAAAAAATGTACTTATAAAAAAGGAAAT [XGTACX_site8186]”: 6.39.

Take “AAGAAAAGCATAGATGCACACATATATATATATATA [CACACA_site8675]”: the “gcPBM binding intensity (ln)” value was 9.35. For the sequence “GCATAATATACTCTTACACACCATTTCTAAATACAT [CACACA_site4912]”, the “gcPBM binding intensity (ln)” value came out at 7.22. With AAGACAATATATGCAGTGCATATACATACATATATA the figure was 8.24. Turning to “AAAAAAAAAAAAAAAAGTACGTATTTTTTTTAAAAT [XGTACX_site2654]”, the “gcPBM binding intensity (ln)” value came to 6.48. The same measure for “ATATATATATATATATGTACATATTTTATTTGAAAT [XGTACX_site7411]”: 9.26; for “ACAGGAAAAAACAATTGTACATGTATATATATATAT [XGTACX_site7677]”: 9.16. As for “ATAATATCATCAAACGCACACATACATAAATATATT [CACACA_site5230]”, the “gcPBM binding intensity (ln)” value stood at 7.49. With “ACATATTATATGAATACACACAAAAACTTATCGGTA [CACACA_site3439]” the figure was 6.57; with “TATTTTTATAATATATGTACATATATATATATATTA [XGTACX_site5343]”, 6.49. Turning to “TTTTTTTTTTTTTTTTGTACGTAAAAAAATATATAC [XGTACX_site1290]”, the “gcPBM binding intensity (ln)” value was 6.46.

“TTGTTATATTACAGTAGTACATTTAAAATCTACTAC [XGTACX_site2620]”: the “gcPBM binding intensity (ln)” value amounted to 6.61. On to “ATTTTTATTTACAACCCCAAAAAGGAAAAACATAAA [CACACA_negctrl_site1169]”, for which the “gcPBM binding intensity (ln)” value is 6.62. As for “TTACATTATATACATACACACCCACCCACAAAAAAA [CACACA_site8187]”, the “gcPBM binding intensity (ln)” value worked out at 9.25. In the case of “AATATTTATACTATAACACACATACAGACAAAAAAA [CACACA_site6396]”, the “gcPBM binding intensity (ln)” value came out at 6.91. With “TATTTTCTTTTTCTTGTACACACATAATATGGATGA [CACACA_site8168]”, the “gcPBM binding intensity (ln)” value is 6.96. With “TATTTACATTTATGTGCACACATTCCATTTGAAAGT [CACACA_site1954]” the figure was 11; with “CGGACATACATAGGAACATGCAAAATTTTTTATTTT [TGCATGCA_site575]”, 6.38. The same measure for “AATAGAAAAAAAAAATGTACACATATAAAAGCATAT [XGTACX_site6306]”: 6.84; for “CAAAATAAAAATTAATGTACATAAAAAATGAATATA [XGTACX_site1085]”: 6.68. As to “ATAAAATTGTATAACTGTACATATATATATATATAT [XGTACX_site5596]”, the “gcPBM binding intensity (ln)” value turned out to be 9.39. For the sequence “TCTTTGAATTTTTTAACACACACATGGGTGGATATA [CACACA_site8474]”, the “gcPBM binding intensity (ln)” value was determined as 6.36.

For the sequence “TTGAAAATGAAAAAATGTACTTAAAAAAAAGGAACA [XGTACX_site8664]”, the “gcPBM binding intensity (ln)” value came to 6.61. As to “TAAATATTTTTTTAGACACACATATATCTATGATAT [CACACA_site1107]”, the “gcPBM binding intensity (ln)” value was determined as 6.23. The same measure for “CCCACAAAGGAATATACACACATATATATATATATA [CACACA_site4091]”: 9.37; for “AAAAAAATAATTTGTAGTACGATTCAATGAAAAGGC [XGTACX_site1287]”: 6.66. Turning to “ATACATATATACATATGTACATATATATATATATAT [XGTACX_site8206]”, the “gcPBM binding intensity (ln)” value was 9.3.

For “TTTTTTCTTAAAGACATATATTTATTTGGTAAAACA [XGTACX_negctrl_site243]”, the “gcPBM binding intensity (ln)” value came out at 6.04. In the case of “GGATATAACAGACACACACACACATATAAATATATT [CACACA_site7866]”, the “gcPBM binding intensity (ln)” value is 6.97. Take “ATGCTATATTAAAAACGTACAAACTGTTTAGAAAAA [XGTACX_site8943]”: the “gcPBM binding intensity (ln)” value was 6.1. For “AAAAAATAAATAAATACACACACACTAATATATATA [CACACA_site8488]”, the “gcPBM binding intensity (ln)” value came to 7.3. With “TATATACAAAAAATATGTACATATATATATATATAT [XGTACX_site3497]”, the “gcPBM binding intensity (ln)” value was 9.17. The same measure for “AGAGATATAAGAAAAGCACACACACCCAAAAAAAAA [CACACA_site8917]”: 6.87; for ATTATTTATATTATGGTGCATAATTTTGGGTTTCTT: 10.4.

For “TATTTGTTTTTATATAGTACATAAATATATATATAT [XGTACX_site7834]”, the “gcPBM binding intensity (ln)” value stood at 8.63. The same measure for “AAAATAAATATGAACACACACATTTATGCCTTTAAA [CACACA_site1271]”: 6.23; for “TATATTATTTATTTTTGTACATATTATGAATGAATA [XGTACX_site3971]”: 6.74; for “CTTCCTTCTAAATGCACACGGAAAGTATAAATGTAT [CACACA_site2501]”: 8.78.

Turning to “TTACCTTTAAATGGATGTACAGAAATTTAAATTGTT [XGTACX_site7044]”, the “gcPBM binding intensity (ln)” value stood at 6.43.
